Source: PubChem BioAssay AID1347165 (National Center for Advancing Translational Sciences (NCATS), 2019)
The campaign covered roughly 220,000 compounds. About 5,700 (2.6%) were called active. The inconclusive results got no clear call from the source; some entries with a clear call stand among them for comparison. The call rests on the fitted dose curve; in most records, active means well fitted inhibition curve with a large enough effect; inconclusive means small, poorly fitted or top-dose-only effect; inactive means no such curve, though single readings can be large or run the other way. Potencies of inconclusive entries are doubtful fits and often do not repeat.

Biological target: Lysine-specific demethylase 5B (Homo sapiens) (UniProt Q9UGL1)
Assay: Primary screen for KDM5B Histone Demethylases FDH-coupled qHTS; further: nearly all actives have a fitted effect of over 70% in size; on activity change, negative = inhibition: 0% is about no effect
Settings: FDH-coupled NADH fluorescence (FDH is formaldehyde dehydrogenase); activity change, negative = inhibition: at 57.7 µM (top of the series) unless noted
How it was run: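 Here, H3K4me3 peptide (12.5 µM in substrate mix) is demethylated by KDM5BΔAP, 200 nM final, after 10 min compound exposure. Formaldehyde product is coupled through FDH (0.25 U/mL in mix) to NADH fluorescence; 30-min ΔRFU feeds dose-response curves.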
Potency means the concentration at half of the fitted maximal effect; tags describe the fitted curve by direction and shape.

Sequence of UniProt Q9UGL1 (Q9UGL1 whole entry, looked up): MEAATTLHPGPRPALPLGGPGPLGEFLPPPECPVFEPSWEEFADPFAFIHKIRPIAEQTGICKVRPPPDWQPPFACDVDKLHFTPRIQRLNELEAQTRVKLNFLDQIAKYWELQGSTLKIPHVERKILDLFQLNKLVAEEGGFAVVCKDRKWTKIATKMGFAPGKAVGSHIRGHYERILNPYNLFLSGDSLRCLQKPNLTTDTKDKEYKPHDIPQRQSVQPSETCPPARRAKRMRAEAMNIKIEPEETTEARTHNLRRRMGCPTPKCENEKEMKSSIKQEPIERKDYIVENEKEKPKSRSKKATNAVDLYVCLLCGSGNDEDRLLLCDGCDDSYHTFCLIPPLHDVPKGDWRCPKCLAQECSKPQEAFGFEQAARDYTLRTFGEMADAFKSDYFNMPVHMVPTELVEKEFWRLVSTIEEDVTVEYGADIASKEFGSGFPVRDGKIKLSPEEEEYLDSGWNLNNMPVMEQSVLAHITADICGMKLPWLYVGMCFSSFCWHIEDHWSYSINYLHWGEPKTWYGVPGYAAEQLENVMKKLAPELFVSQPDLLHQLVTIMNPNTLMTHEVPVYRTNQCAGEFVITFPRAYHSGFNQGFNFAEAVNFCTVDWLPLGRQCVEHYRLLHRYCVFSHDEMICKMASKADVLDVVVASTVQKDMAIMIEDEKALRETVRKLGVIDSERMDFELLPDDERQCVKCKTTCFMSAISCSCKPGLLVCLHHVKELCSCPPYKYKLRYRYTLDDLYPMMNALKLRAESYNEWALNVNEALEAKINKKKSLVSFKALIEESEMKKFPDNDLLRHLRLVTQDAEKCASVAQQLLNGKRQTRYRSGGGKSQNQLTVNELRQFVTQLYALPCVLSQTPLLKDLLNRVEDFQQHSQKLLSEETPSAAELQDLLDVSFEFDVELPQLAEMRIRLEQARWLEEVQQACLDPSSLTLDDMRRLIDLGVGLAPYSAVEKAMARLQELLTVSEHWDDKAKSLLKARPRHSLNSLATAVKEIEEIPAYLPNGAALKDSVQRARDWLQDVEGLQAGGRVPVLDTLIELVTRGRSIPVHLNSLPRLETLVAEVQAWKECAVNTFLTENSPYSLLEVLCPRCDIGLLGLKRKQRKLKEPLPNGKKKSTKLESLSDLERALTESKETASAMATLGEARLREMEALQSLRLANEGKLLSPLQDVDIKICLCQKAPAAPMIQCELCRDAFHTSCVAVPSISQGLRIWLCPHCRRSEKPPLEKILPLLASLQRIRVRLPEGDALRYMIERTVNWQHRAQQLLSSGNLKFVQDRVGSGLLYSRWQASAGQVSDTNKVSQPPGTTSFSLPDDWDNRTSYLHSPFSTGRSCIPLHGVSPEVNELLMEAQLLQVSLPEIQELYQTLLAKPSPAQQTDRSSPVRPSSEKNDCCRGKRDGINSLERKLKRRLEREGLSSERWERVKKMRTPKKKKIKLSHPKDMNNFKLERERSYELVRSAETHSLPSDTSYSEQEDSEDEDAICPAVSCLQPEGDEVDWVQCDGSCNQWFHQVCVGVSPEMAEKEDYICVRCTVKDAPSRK

SMILES | Potency | activity change, negative = inhibition
Cc1ccc(N2CCN(S(=O)(=O)c3cc(C(=O)Nc4cc(Cl)cc(Cl)c4)ccc3F)CC2C)cc1 (stereo not drawn) | inactive | –
O=C(Nc1cccc2[nH]ccc12)C(=O)N1CCCC1 | inactive | –
CCCCCCNC(=O)Cc1csc2nc(C)c(-c3cc(C)n(-c4ccc(F)cc4)n3)c(=O)n12 | inconclusive: 17.8 µM [inhibitor, partial curve, poor fit] | –
CC(C)c1nc(C(=O)N(C)C2CCCN(CCCc3ccccc3)C2)cs1 (stereo not drawn) | inactive | –
O=C(NCc1ccc(Cl)cc1)c1ccc2cc[nH]c2n1 | active: 112 µM | –
Cc1nn(CC(=O)O)c(=O)c2cc3cc(F)ccc3n12 | inconclusive: 25.1 µM [inhibitor, partial curve, poor fit] | –
CCCS(=O)(=O)C/C(N)=N/OC(=O)c1ccccc1Cl | – | inconclusive: -34.1% [inhibitor]
Cc1cccc(-n2c(=O)c3c(c4cc(C)ccc4n3C)n(CC(=O)NCC3CCCO3)c2=O)c1 (stereo not drawn) | inconclusive: 2.82 µM [inhibitor, full curve, poor fit] | –
Cc1oc(-c2cccc(Cl)c2)nc1CS(=O)(=O)CC(=O)NCc1ccccc1Cl | inconclusive: 1.41 µM [inhibitor, partial curve, poor fit] | –
N#Cc1nc(-c2ccc(Cl)cc2)oc1NCc1ccc(Cl)cc1 | inactive | –
O=C1CCCN1CCCn1ccnc1-c1cc2n(n1)CCCNC2 | inactive | –
Cc1ccc2c(c1)c(=O)c1ccccc1n2CCCC(=O)Nc1cc(Cl)ccc1C | inconclusive: 2.24 µM [inhibitor, full curve, poor fit] | –
CCn1c(C(=O)NCc2ccc(OC(C)C)cc2)cc2oc3ccccc3c21 | inconclusive: 31.6 µM [inhibitor, partial curve, poor fit] | –
CC1CCC(C(C)C)C(OC(=O)Cn2nnc3c(cnn3-c3ccccc3)c2=O)C1 (stereo not drawn) | inconclusive: 28.2 µM [inhibitor, partial curve, poor fit] | –
O=C(N[C@@H]1C[C@H](Cn2cc(CN3CCS(=O)(=O)CC3)nn2)[C@@H](O)[C@H]1O)c1cncnc1 | active: 14.1 µM | –
Cc1ccc(C)c(N2CCN(C(=O)c3cc(C)nc4c3c(C)nn4-c3cccc(F)c3)CC2)c1 | inconclusive: 39.8 µM [inhibitor, single point] | –
CCOC(=O)c1sc(Nc2ccc(C(C)=O)cc2)nc1C(F)(F)F | inconclusive: 31.6 µM [inhibitor, single point] | –
O=S(=O)(c1ccccc1)N(F)S(=O)(=O)c1ccccc1 | inconclusive: 39.8 µM [inhibitor, partial curve, poor fit] | –
